In PubChem BioAssay AID1379 (National Center for Advancing Translational Sciences (NCATS), 2008):
About 560 (0.28%) of roughly 200,000 compounds were called active. This list was built around the results that the source calls inconclusive (neither active nor inactive); the mix of calls is not that of the screen. Calls come from the whole dose curve; as a rule, active = well fitted inhibition curve with a large enough effect; inconclusive = small, poorly fitted or top-dose-only effect; inactive = flat fitted curve, though single readings scatter. No potency is given beside an inconclusive call; the fits are too rough.

Biological target: Luciferin 4-monooxygenase (Photuris pensylvanica) (UniProt Q27757)
Experiment: Counterscreen for Luciferase (Kinase-Glo TM) Inhibition; note: nearly all actives have a fitted effect of over 60% in size
Settings: ATP luminescence, 8 min; series mostly up to 38.3 µM
Method in brief: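 Light output from Kinase-Glo luciferase with luciferin and 10 uM ATP in 50 mM imidazole pH 7.2, KCl, MgCl2, Tween 20, BSA; compound pin-delivered, 8-min ambient incubation, then luminescence read.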
Potency is the fitted concentration of half-maximal effect; tags give direction and shape of the fitted curve.

| SMILES | Potency |
| --- | --- |
| Cc1cc([N+](=O)[O-])ccc1NC(=O)/C=C/c1cccs1 | inactive |
| Cc1ccc(/C=C/C(=O)c2ccc(N3CCOCC3)cc2)s1 | inconclusive [inhibitor, single point] |
| O=C1CCCc2nc(N3CCc4ccccc43)ncc21 | inconclusive [inhibitor, single point] |
| CCC(C)C(NC(=O)OC(C)(C)C)C(=O)NC(Cc1ccccc1)C(=O)OC (configuration not stated) | inactive |
| COC(=O)c1ccccc1NC(=O)Nc1ccc(Cl)cn1 | inconclusive [inhibitor, single point] |
| Cc1ccnc(N2C(=O)c3ccccc3C2O)c1 (configuration not stated) | active: 11.2 µM |
| CC[C@@H]1Cn2c(c3nc(-c4cc(Cl)cc(Cl)c4Cl)nc-3n(C)c2=O)N1 | inactive |
| O=c1oc2ccccc2cc1-c1nc2c(s1)CCCC2 | active: 11.2 µM |
| Ic1ccc(N2CCN(Cc3c[nH]c4ncccc34)CC2)cc1 | inactive |
| Cc1cc(C2=NNC(=NC3CC3)SC2)c(C)n1Cc1ccco1 | inconclusive [inhibitor, partial curve] |
| COc1ccc(C(=O)Nc2ccccc2C(N)=O)cc1 | inconclusive [inhibitor, single point] |
| CCCC(=O)Nc1nc2ccc(OCC)cc2s1 | inactive |
| Oc1c(Br)cc(Br)cc1CNc1ccc(F)cc1 | inactive |
| Cc1nn(-c2ccccc2)c(C)c1/C=N/Nc1nc2ccccc2[nH]1 | active: 10 µM |
| COc1ccc(NS(=O)(=O)c2csc(C(=O)Nc3ccccc3)c2)cc1 | inactive |
| Cc1ccc(-c2nc3cccnc3s2)cc1NS(=O)(=O)c1ccc2c(c1)CCCC2 | inactive |
| CCOc1cc(/C=N/NC(=O)C(C)Sc2ccccc2)ccc1O (configuration not stated) | inactive |
| COc1ccc(NC(=O)Nc2ccccc2F)cc1 | inconclusive [inhibitor, partial curve] |
| O=C(NCCC1=CCCCC1)C1CCN(S(=O)(=O)c2cnc[nH]2)CC1 | inactive |

| SMILES | Potency |
| --- | --- |
| Cc1nc(C)c(C(=O)Nc2ncc([N+](=O)[O-])s2)o1 | inconclusive [inhibitor, partial curve] |
| Cc1ccnc(N(C(=O)c2cccs2)C(=O)c2cccs2)c1 | inconclusive [inhibitor, single point] |
| Cc1cc(=O)[nH]c(N=N/C(=N/Nc2ccccc2C)c2ccccc2)n1 | inconclusive [inhibitor, single point] |
| CC(C)C(NC(=O)OCc1ccccc1)C(=O)NCC(=O)OC(C)(C)C (configuration not stated) | inactive |
| COc1ccc(-c2cn3cc(C)ccc3n2)cc1OC | inconclusive [inhibitor, partial curve] |
| COc1ccc(NC(=O)c2nc3ccccc3s2)cc1 | active: 8.91 µM |
| Cc1cc(C)n(-c2nncc(-c3ccccc3)n2)n1 | inconclusive [inhibitor, partial curve] |
| COc1ccc(N=CC2=C(O)c3ccccc3C2=O)c(OC)c1 | active: 4.47 µM |
| COc1ccc(/C(C)=N/N=C(\C)c2ccc(OC)cc2OC)c(OC)c1 | inactive |
| Nc1nc2ccccc2n1C(=O)c1ccccc1 | active: 11.2 µM |
| CCOc1ccc(C(=O)Nc2cccc(C)n2)cc1 | inconclusive [inhibitor, partial curve] |
| Cc1ccccc1-c1nnc(-c2ccccc2)o1 | inconclusive [inhibitor, single point] |
| CSc1nnc(-c2ccccc2N=Cc2c(C)[nH]n(-c3ccc4ccccc4c3)c2=O)c(=O)[nH]1 | inconclusive [inhibitor, partial curve] |
| COc1ccc(Cl)cc1-c1n[nH]c(=S)o1 | inactive |
| CN1/C(=C\C=N\O)C(C)(C)c2ccccc21 | inactive |
| Oc1ccc(Br)cc1/C=N/N1CCCCC1 | inconclusive [inhibitor, partial curve] |
| CCOC(=O)C1(Cc2cccc(F)c2)CCN(CC2CC2)CC1 | inactive |
| CC1(C)CC2CC(C)(CN2c2ncnc3ccccc23)C1 (configuration not stated) | inactive |
